Hit rate of the full screen: of about 150,000 compounds, about 540 (0.36%) showed an effect of 50% or more. This is one part of the list.
system: Plasmodium falciparum; assay: Primary screen in NF54 nanoGlo assay, in single point, at 2uM, 72h; a lower Z score goes with more inhibition; format: functional, Erythrocyte; conditions: timepoint 72 hour

| SMILES | % Inhibition | Z score |
| --- | --- | --- |
| Fc1ccc2c(c1F)CN(c1ncnc3[nH]ccc13)CC2 | -5% | 0.77 |
| O[C@H](c1ncc[nH]1)C1CCN(c2ncncc2Br)CC1 | -4% | 0.61 |
| Cc1c(C)c(C(=O)Nc2ccc(C(C)C)cc2)n(Cc2ccccc2F)c1C | -9% | 1.18 |
| COc1ccc(-c2cnc3ncnn3c2N2CCN(C(=O)c3ccccc3C(F)(F)F)CC2)cc1 | 0% | -0.06 |
| CC(C)CN(Cc1nccn1Cc1ccc(Cl)cc1Cl)C(=O)c1ccccc1F | 0% | 0.07 |
| Cc1cccc(CN2CCN(Cc3ccco3)C[C@H](C(=O)O)C2)c1 | -2% | 0.35 |
| O=C(c1nc(-c2ccc(S(=O)(=O)N3CCCCC3)cc2)no1)N1CCCCC1 | -13% | 1.51 |
| CN1CCN(C(=O)c2cnnn2C)C(C)(C)C1 | 1% | -0.1 |
| O=C1c2cccnc2CN1Cc1nncn1CCc1ccccc1 | -14% | 1.32 |
| CCN(Cc1nc(C)no1)C(=O)Nc1ccc(OC[C@H]2CCCCO2)cc1 | 16% | -2.08 |
| Cc1c(CCC(=O)N[C@H]2CCCc3sc(Cl)cc32)cnn1C | 0% | -0.09 |
| Cc1cc(C2CC2)nc(NS(=O)(=O)c2c(Cl)ccc(C)c2Cl)n1 | -1% | 0.23 |
| O=C(NCC1(c2ccc(F)cc2F)CC1)C1(O)CCCC1 | -9% | 1.19 |
| N#Cc1ncn(CC(=O)N2CCC(Cc3ccccc3)CC2)c1C#N | 3% | -0.38 |
| O=C(NC1(c2cn(-c3cccc(Cl)c3)nn2)CCCCC1)c1cn(-c2cccc(Cl)c2)nn1 | 3% | -0.37 |
| Cc1nccn1CCCCNC(=O)N1CCCCCC1 | -3% | 0.31 |
| COC(=O)c1c(F)ccc(Cl)c1N | 0% | 0 |
| Cc1noc(NS(=O)(=O)c2c(C)nn(CC(C)C)c2C)c1C | -5% | 0.83 |
| CC(C)(C)NC(N)=NCc1ccsc1 | -17% | 3.1 |
| O=C(NCCOc1ccccc1)c1ccc(CNS(=O)(=O)c2ccc3ccccc3c2)cc1 | -1% | 0.23 |
| COc1ccc([C@H]2C[C@H]3CC[C@@H](C2)N3C(=O)C2CCN(C(C)=O)CC2)cc1 | -4% | 0.95 |

| SMILES | % Inhibition | Z score |
| --- | --- | --- |
| CN1C[C@@H](NC(=O)N2CCCC2)C[C@H]1C(=O)NCc1ccncc1 | 2% | -0.47 |
| CCn1c(=O)c2sc(N3CCCC3)nc2n(CC(=O)Nc2ccc(F)cc2)c1=O | -21% | 1.89 |
| CN1C(=O)[C@@H](c2ccccc2)CC12CCN(C(=O)c1ccccc1O)CC2 | -14% | 1.29 |
| Cc1nc(-c2ccccc2)n(CC(=O)Nc2ccc3c(c2)OCO3)c(=O)c1Cl | -3% | 0.66 |
| Cc1cccc(C(=O)N2C[C@H](F)C[C@H]2C(=O)N2CCOCC2)c1C | -10% | 1.39 |
| Cc1cccc(NC(=O)COc2cccc(-c3noc(COc4cccc(C)c4)n3)c2)c1 | 14% | -1.77 |
| COC(=O)c1ccc(CCC(=O)N[C@H]2CCCCNC2=O)cc1 | -4% | 0.51 |
| COc1ccc(-c2cc(-c3nc4ccccc4[nH]3)c(-c3ccccc3)nn2)cc1OC | 3% | -0.62 |
| CCCC1(CCC)CCC(CCC)(CCC)N1 | -15% | 2.07 |
| Cc1nc2ccccc2c(-c2ccc(Cl)cc2)c1C1=NN(C(=O)C(C)(C)C)[C@H](c2ccc(Cl)cc2)C1 | -2% | 0.21 |
| CCC(CC)NS(=O)(=O)CC1CCCCC1 | -3% | 0.32 |
| Cn1cc([C@@H]2CC(=O)Nc3c2c(=O)[nH]n3C2CCCCCCC2)cn1 | -13% | 1.71 |
| Cc1ccc(CNC(=O)Cn2nnc(C(=O)Nc3cc(Cl)ccc3C)c2C)cc1 | 29% | -3.27 |
| CCc1cc(=O)n2nc(NC(=O)C[C@H](n3cccn3)C(F)(F)F)[nH]c2n1 | -15% | 2.81 |
| COc1cc(-c2nc(C(=O)N(C)C(C)C)cs2)ccc1OCc1ccc(F)cc1F | 5% | -0.91 |
| CC(C)Cn1c(=O)n(C[C@H](C)N2CCCC2)c2cc(C(=O)O)cnc21 | 0% | -0.01 |
| c1ccc(N2CCN(c3ncnc4c3CCC4)CC2)cc1 | -13% | 1.38 |
| Cc1ccc(C(=O)N2CCC(c3nnco3)CC2)c(Cl)c1 | -13% | 1.46 |
| Cn1cc([C@@H]2CNCCN2C(=O)c2cccc(F)c2F)cn1 | -1% | 0.06 |
| Cn1cccc1C(=O)NC(=O)Cn1cnc(C#N)n1 | -7% | 1.04 |
| O=C(Cc1c[nH]c2ccccc12)N[C@H]1CCCN(c2cc(-c3ccccc3)n[nH]2)C1 | -12% | 1.24 |

| SMILES | % Inhibition | Z score |
| --- | --- | --- |
| O=S(=O)(NCCCn1cccn1)N1CCCCC1 | -8% | 1.1 |
| CCCN(CCC)C(=O)NC(=O)c1ccccc1 | -8% | 1.44 |
| C[C@@H]1CN(C(=O)CN(C)Cc2cc[nH]n2)C[C@H](C)O1 | -8% | 1.58 |
| COc1ccc(N/C(=N/S(C)(=O)=O)NC2CCCCCC2)cc1OC | 4% | -0.52 |
| CCN(CC)[C@@H](CNC(=O)CCc1c(C)nn(C)c1C)c1ccco1 | 33% | -4.43 |
| NC(=O)c1ccc(C(=O)N[C@H]2CC[C@H](Nc3nccc(C(F)(F)F)n3)CC2)[nH]1 | 12% | -1.88 |
| N#Cc1ncn(CC(=O)N[C@@H]2C[C@H]2C2CCCCC2)n1 | 4% | -0.55 |
| Cc1ccc(C2OCCCC2NC(=O)c2ccc(C(=O)O)nc2)cc1 (stereo unspecified) | 6% | -0.82 |
| c1ccc(C[C@H](NCCCc2nnn[nH]2)C2CCCCC2)cc1 | -8% | 1.11 |
| CCN(CC)C(=O)c1csc(-c2ccc(OCc3cc(F)ccc3F)c(OC)c2)n1 | -11% | 1.99 |
| Cc1nnsc1CN(C)C(=O)c1cc2ccccc2n1C | -14% | 2.35 |
| Cc1ccsc1-c1nc(CN2CCc3c(c(CO)nn3C)C2)c(C)o1 | 2% | -0.41 |
| CN(Cc1ccc(-c2cc(C(C)(C)C)nc(N)c2C#N)o1)S(C)(=O)=O | -13% | 2.23 |
| O=C(Nc1cc(-c2ccccc2)ns1)c1ccco1 | -4% | 0.42 |
| O=C(C[n+]1nc(-c2n[n+](CC(=O)c3ccccc3)c3n2CCCCC3)n2c1CCCCC2)c1ccccc1 | 6% | -1.08 |
| N=C(NC(=O)c1ccccc1F)Nc1nc2ccccc2o1 | 1% | -0.05 |
| CCCN(Cc1cccnc1)C(=O)c1cnc(-c2csc(C)n2)nc1O | -6% | 1.19 |
| O=C(c1nc2ccccc2[nH]1)N1CC[C@H](N2CCCCC2)C1 | -6% | 0.59 |
| Cn1cncc1CC(=O)N1CCN(Cc2ccccc2)C(=O)C1(C)C | -14% | 1.91 |
| Cc1ccc2oc(N3CCC(NCCc4ccnn4C)CC3)nc2c1 | -3% | 0.39 |
| O=C(NC1CCN(Cc2ccccc2F)CC1)C1(N2CCCCC2)CCCCC1 | -8% | 1.12 |

| SMILES | % Inhibition | Z score |
| --- | --- | --- |
| COc1ccc(C2CC(c3ccc(Cl)cc3)N(C(C)=O)c3ncnn32)cc1 (stereo unspecified) | 27% | -3.03 |
| CC(C)(C)C1OCCCC1CNC(=O)N1CCC2CCCCC21 (stereo unspecified) | -6% | 1.16 |
| Cn1c([C@H]2CCN(Cc3ncc[nH]3)C2)nc2ccccc21 | -3% | 0.41 |
| Cc1ncc(C(=O)N2CCC(Oc3ccc(Cl)cc3)CC2)c(C)n1 | -11% | 1.95 |
| COCCn1cc(C(=O)NC[C@H](O)c2ccc(Cl)cc2)c(C)n1 | 1% | -0.14 |
| CCCc1cc(C(=O)NCCN2CCCCC2)cs1 | -18% | 2.61 |
| CCOc1ccc(Br)cc1N | -7% | 1.36 |
| Cc1cc(C)c2c(c1)-c1c(ssc1=S)C(C)(C)N2C(=O)[C@H](Cc1ccccc1)N1C(=O)c2ccccc2C1=O | -5% | 0.67 |
| COc1cnc(NC(=O)N2CCO[C@@H](CS(C)(=O)=O)C2)s1 | -12% | 2.4 |
| CCn1cc([C@@H]2CC(=O)Nc3cc(Oc4ccccc4)ccc32)c(C)n1 | -3% | 0.66 |
| CCCn1cc(CN/C(=N\c2ccc(OC)cc2)NC(=O)c2cccc(Cl)c2)c(C)n1 | -8% | 1.33 |
| Cc1csc(CNC(=O)c2ccccc2C(=O)c2ccc(F)cc2)n1 | -2% | 0.39 |
| CC(=O)Nc1cccc(NC(=O)Cn2ccc(-c3ccccc3)n2)c1 | -5% | 0.99 |
| Cc1ncc(Cl)c(C(=O)OCCn2cccn2)n1 | -2% | 0.27 |
| Cc1n[nH]c(C(=O)NC(c2ccccc2)C2CCOC2)c1C (stereo unspecified) | -5% | 1.03 |
| CCCn1cnc(C(N)=O)c1NC(=O)CCc1c(C)noc1C | -10% | 1.44 |
| COc1cccc(-n2nc(C)c(CCC(=O)NCC3(N4CCOCC4)CCCCC3)c2C)c1 | 2% | -0.28 |
| Cc1nn(C)c2nc(-c3ccco3)cc(C(=O)N(Cc3nc4ccccc4c(=O)[nH]3)C(C)C)c12 | -8% | 1.09 |
| N#CC1(NC(=O)[C@H]2CC(=O)N(c3cc(F)cc(F)c3)C2)CCOCC1 | -7% | 0.98 |
| O=C1NCCCc2occ(C(=O)N3CC[C@H](C(F)(F)F)C3)c21 | -12% | 2.56 |

Reference: ChEMBL document CHEMBL4888484, “Replenishing the malaria drug discovery pipeline: Screening and hit evaluation of the MMV Hit Generation Library 1 (HGL1) against asexual blood stage Plasmodium falciparum ,using a nano luciferase reporter read-out” (2022)
